# Data reported in the supplement of paper PMC11417369.
# ± gives the standard deviation of the averaged measurements. The list shows a part of the results.
# System: PfAP2-EXP AP2 domain (GST-tagged)
# Assay: gcPBM binding intensity (ln(normalized median fluorescence intensity)); higher = stronger DNA binding
# Method in brief: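 For binding intensity, the highest Masliner-normalised natural-log median intensity across replicate spots of either probe orientation was taken. Protein bound to the array was stained with Alexa488 anti-GST antibody and scanned at 488 nm. The protein, GST-tagged P. falciparum DNA-binding domains from E. coli at about 25 μg on average, had been applied for 1 h to an Agilent 4 × 180k array of primer-extended double-stranded 36-bp intergenic genomic probes and negative controls.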
row,Sequence,gcPBM binding intensity (ln)
1,TCTTTTCGTTCATGCTGTACTTAATTGCTCTAATTT [XGTACX_site4816],9.11 ± 0.52
2,AAAAAAAAAAAAAGCACACACACATATGTGTATATA [CACACA_site8225],8.4 ± 0.36
3,CCCTGCCTCTCTTTGGTGCGTTGTAACCCTCGAGGA,8.84 ± 0.46
4,TGTCTGTGCGGGTGTACACATTTCATATTACCCAAT [CACACA_site5593],9.11 ± 0.39
5,TAAATTGTATATGAGACTATACTATAAAAGTATGAA [XGTACX_negctrl_site22],8.26 ± 0.42
6,AATTAGATACTAACAAGTACATATATATATATATAT [XGTACX_site2252],10.2 ± 0.26
7,ATTTTTTTTTGTGTATATAAATAAATAAATATATAT [GTGCAC_negctrl_site603],8.3 ± 0.37
8,ATTTAGATTAACACTTGTACATAATACATACAAATA [XGTACX_site4147],8.37 ± 0.32
9,TTGTAATTATTAAACACACACAAAATATCTAGAATA [CACACA_site7231],8.69 ± 0.46
10,TTTCCCTAATGAAAGTGTACCTGTGAGAAAAAAAAG [XGTACX_site194],8.7 ± 0.4
11,AAAAGAAAAGAGAGGAGTACAAAATATAATTATCTA [XGTACX_site5172],8.68 ± 0.49
12,CATATTGGTATGCTCATGCACTTTTATTTTGTTATT [GTGCAC_site9553],8.79 ± 0.38
13,AAAAAAAAAAAAAGAACACACACAGTGCACATTCGG [CACACA_site8163],8.82 ± 0.3
14,TGTATATATTAATGTACACACATGCGTATGTTCGTT [CACACA_site3583],8.72 ± 0.32
15,TTATTTATTTATATAGTGCAATAAACACATAAATAG,8.57 ± 0.014
16,TATAAATAATAAAGATGTACTTTTTATGATTCCTAC [XGTACX_site7003],8.51 ± 0.29
17,TATAAAAAGCAAAACAAAAAAACAAATTGAAAAATT [TGCATGCA_negctrl_site158],8.71 ± 0.73
18,TTACTACTATATTATACACACATATATTTATTTATA [CACACA_site7274],8.7 ± 0.4
19,TTTTTTATTTTTTTATTGTTTTATTGTTTCATTGTT [XGTACX_negctrl_site128],8.59 ± 0.51
20,CCGTAGTTTTAAAATAGTACTTTTATGGTTAATAAA [XGTACX_site3162],8.3 ± 0.42
21,GTTATAACTCAAATATGTACATATTATAAAACATAT [XGTACX_site6693],8.77 ± 0.42
22,AAAAAAAAAAAAAAAGGTACACAAATACGTCCTGCA [XGTACX_site3354],8.78 ± 0.13
23,TATAAAAATAAGCACACACACAAATATATATTTATT [CACACA_site922],8.46 ± 0.45

row,Sequence,gcPBM binding intensity (ln)
1,TTATAGAACTATATTGCACACATAATATATATATAT [CACACA_site9042],9.81 ± 0.18
2,TAATTATAATAAAAAGGTACAGAAAAGTTATACTCA [XGTACX_site6111],8.51 ± 0.46
3,AATTATCAAAGTCTATACATACATACATACATACAT [GTGCAC_negctrl_site243],8.95 ± 0.23
4,CACTCTTAAAATAAGGTGCACTATATAACGTGATTA [GTGCAC_site9422],9.42 ± 0.68
5,ATAAAATAAATAAATATAAATATATATATATATATA [TGCATGCA_negctrl_site358],10.2 ± 0.45
6,TATACATATTTACAAGTGCATAATATTTTACAAAAA,8.46 ± 0.092
7,ATATATATGTATGTATGTACTTATTTATTTATTTAT [XGTACX_site7740],8.32 ± 0.16
8,CCAATGAGGATATATACACACATACATTAAAAAAAT [CACACA_site5090],8.65 ± 0.69
9,TAAGAAAAAGGCACACGTACATAATTCAAAATAAAT [XGTACX_site982],8.82 ± 0.52
10,TTTTTTTTCACACATTGTACTTTTTTATAAAATATA [XGTACX_site4351],8.85 ± 0.23
11,ATTTAAATAATATGTACACACATTTAAAAAATTATA [CACACA_site2816],8.34 ± 0.33
12,GTCAACTTGTGATAAGTGCATATATATAATAAAATG,8.74 ± 0.26
13,AAAAAAATATAATATTTGAATAAATATAATAATATG [XGTACX_negctrl_site477],8.21 ± 0.28
14,CGAAATAAATCTTATGCACACAAATAATTAATTAAA [CACACA_site8491],8.54 ± 0.22
15,AATATATAGGTATTTACACACAATGTGAGATCTATA [CACACA_site3407],8.4 ± 0.48
16,ATTTATGAAAAGTAAAGTACACACAGGAAAAAAAAA [XGTACX_site3564],9.04 ± 0.49
17,ATATATGTACAAATTGTGCGCAATAATTTTGTCTTT,8.93 ± 0.28
18,ATTTTCACCTGAACGGTGCATATTTAATTTTAGGTT,8.9 ± 0.085
19,ATATATTATAGAGGTGTGCACTACATACATTATAAT [GTGCAC_site9991],9.02 ± 0.23
20,TCTTTATGTAAGGTCTTCCACAAAAAAATTAAAAAA [TGCATGCA_negctrl_site229],8.26 ± 0.47
21,GAAAAATTAATAAATAAACACACATATATATATATA [CACACA_site8835],10.2 ± 0.24
22,ATAGAAACATATTGACGTACAGTATAATAATACAGT [XGTACX_site197],8.72 ± 0.31
